# Test results taken from the supplement of paper PMC5919970.
# Structures can show the parent of a compound that is named as a salt. Whole data set: some 2,000 compounds, median “fractional viability relative to vehicle” near 0.91, cut for the lowest 2% near 0.045. The list shows a part of the results.
# Test system: TYKNU
# Experiment: fractional viability relative to vehicle; TYKNU is a high-grade serous ovarian cancer line; higher = less growth inhibition
# Conditions: 72 h
# Procedure, shortened: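 Drug treatment lasted 72 h, with cells grown at 37 °C in 5% CO2 in RPMI 1640 supplemented with 10% FBS. Beforehand, TYKNU control cells or their lentiCRISPRv2 knockout derivatives had been seeded at 500 cells per well into drug-stamped 384-well plates carrying a ~2100-compound library at 2 or 10 μM, in duplicate. Viability came from Cell Titer Glo luminescence, with averaged duplicate treatment wells normalised to duplicate control wells in the same plate position.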
# [1] = 2uM, genotype: DNM1L knockout (sgDNM1L #1)
# [2] = 2uM, genotype: sgCTRLA1 (non-targeting control)
# [3] = 10uM, genotype: DNM1L knockout (sgDNM1L #1)
# [4] = 10uM, genotype: sgCTRLA1 (non-targeting control)
Structure (SMILES),fractional viability [1],fractional viability [2],fractional viability [3],fractional viability [4]
O=C(Nc1ccc(S(=O)(=O)Nc2ccccc2Cl)c(Cl)c1)c1ccccn1,0.711,0.925,0.692,0.771
Oc1ccc(-c2nc(-c3ccc(F)cc3)c(-c3ccncc3)[nH]2)cc1,1.28,1.05,1.02,0.933
Cc1ccc(C(=O)Nc2ccc(CN3CCN(C)CC3)c(C(F)(F)F)c2)cc1C#Cc1cnc2[nH]ncc2c1,0.214,0.169,0.0362,0.0116
O=C(NC[C@H](O)CO)c1ccncc1Nc1ccc(I)cc1F,0.333,0.318,0.212,0.205
Cc1ccc(-n2nc(C(C)(C)C)cc2NC(=O)NCc2cc(F)ccc2Oc2ccc3c(cnn3CCO)c2)cc1 [Pexmetinib (ARRY-614)],0.541,0.748,0.4,0.312
Cc1ncc([N+](=O)[O-])n1CC(C)O (configuration not stated) [Secnidazole],1.12,1.03,1.36,1.22
OCCn1cc(-c2cnc3nnn(Cc4ccc5ncccc5c4)c3n2)cn1,1.03,1.13,0.949,1.18
C[C@]12CCC(=O)C=C1[C@@H]1C[C@@H]1[C@H]1[C@@H]3[C@@H]4C[C@@H]4[C@@]4(CCC(=O)O4)[C@@]3(C)CC[C@@H]12 [Drospirenone],1.14,0.966,0.869,0.875
N#Cc1cc(CN2CCC(Nc3ncnc4sc(Cl)cc34)CC2)ccc1F,0.816,1.01,0.596,0.553
COc1ccc2cc([C@H](C)C(=O)O)ccc2c1 [Naproxen],1.11,1.14,0.961,1.02
C=CC1=C(C(=O)O)N2C(=O)[C@@H](NC(=O)/C(=N\O)c3csc(N)n3)[C@H]2SC1 [Cefdinir],0.915,1.01,0.932,1.03
CN1C(CCl)Nc2cc(Cl)c(S(N)(=O)=O)cc2S1(=O)=O (configuration not stated) [Methyclothiazide],1.11,1.22,0.891,1.13
OCc1ccccc1O[C@@H]1O[C@H](CO)[C@@H](O)[C@H](O)[C@H]1O [Salicin],0.9,1.15,0.831,1.18
C=C1CC[C@@H]2[C@](C)(CO)[C@H](O)CC[C@@]2(C)[C@@H]1C/C=C1/C(=O)OC[C@H]1O [Andrographolide],0.729,0.927,0.152,0.143
Cc1cn([C@H]2C=C[C@@H](CO)O2)c(=O)[nH]c1=O [Stavudine (d4T)],0.736,0.926,0.664,0.778
CC(=O)NS(=O)(=O)c1ccc(N)cc1 [Sulfacetamide Sodium],1.18,1.07,0.88,0.923
CC/C(=C(\c1ccc(O)cc1)c1ccc(OCCNC)cc1)c1ccccc1 [Endoxifen HCl],0.74,0.829,0.291,0.172
Cc1ccc(S(=O)(=O)Cc2nc(-c3ccc(C(=O)NCc4cccnc4)cc3)oc2C)cc1,0.0788,0.0847,0.0667,0.0818
COc1cccc2c1C(=O)c1c(O)c3c(c(O)c1C2=O)C[C@@](O)(C(C)=O)C[C@@H]3O[C@H]1C[C@H](N)[C@H](O)[C@H](C)O1 [Daunorubicin HCl],0.392,0.254,0.0554,0.0241
CNC(=O)c1cc(Oc2ccc(NC(=O)Nc3ccc(Cl)c(C(F)(F)F)c3)cc2)ccn1 [Sorafenib Tosylate],0.918,0.915,0.371,0.205

Structure (SMILES),fractional viability [1],fractional viability [2],fractional viability [3],fractional viability [4]
CNC(=O)c1cc(Oc2ccc(NC(=O)Nc3ccc(Cl)c(C(F)(F)F)c3)cc2)ccn1 [Sorafenib],0.729,0.795,0.301,0.197
CNC(=O)c1ccccc1Nc1cc(Nc2ccc(N3CCOCC3)cc2OC)ncc1C(F)(F)F,0.645,0.724,0.323,0.328
CN(c1ccccc1CNc1nc(Nc2ccc3c(c2)CC(=O)N3)ncc1C(F)(F)F)S(C)(=O)=O,0.565,0.771,0.214,0.18
CCN(CC)CC(=O)Nc1c(C)cccc1C [Lidocaine],1.04,1.17,1.04,1.17
CC(=O)c1cc2c(o1)C(=O)c1ccccc1C2=O [Napabucasin],0.0305,0.0196,0.018,0.0135
CC(C=CC(=O)NO)=CC(C)C(=O)c1ccc(N(C)C)cc1 (configuration not stated) [Trichostatin A (TSA)],0.1,0.151,0.118,0.153
CC(=O)OCC(=O)[C@@]12OC(C)(C)O[C@@H]1C[C@H]1[C@@H]3C[C@H](F)C4=CC(=O)C=C[C@]4(C)[C@@]3(F)[C@@H](O)C[C@@]12C [Fluocinonide],1.22,1.08,0.801,0.941
c1ccc2c(CC3=NCCN3)cccc2c1 [Naphazoline HCl],0.971,1.18,0.671,1.07
COc1nc(OCc2cccc(-c3ccccc3)c2C)ccc1CNCCNC(C)=O [PD-1/PD-L1 inhibitor 2],0.852,0.872,0.501,0.0875
COc1cc2nccc(Oc3ccc(NC(=O)NC4CC4)c(Cl)c3)c2cc1C(N)=O [Lenvatinib (E7080)],0.933,1.04,0.815,1.06
c1nc2c(NC3CCCCC3)nc(Nc3ccc(N4CCOCC4)cc3)nc2[nH]1 [Reversine],0.545,0.579,0.229,0.216
CNc1cc(-c2cccc(Cl)c2Cl)nc(N)n1,0.294,0.379,0.252,0.165
C[C@@H](O[C@H]1OCCN(Cc2nn(P(=O)(O)O)c(=O)[nH]2)[C@H]1c1ccc(F)cc1)c1cc(C(F)(F)F)cc(C(F)(F)F)c1 [Fosaprepitant dimeglumine salt],0.96,1.02,0.454,0.875
CCC(C)(Oc1ccc(C2(c3ccc(OC(C)(CC)C(=O)O)cc3)CCCCC2)cc1)C(=O)O (configuration not stated) [Clinofibrate],1.04,1.07,0.917,1.13
Cc1c(CN2CCN(C(=O)[C@H](C)O)CC2)sc2c(N3CCOCC3)nc(-c3cnc(N)nc3)nc12,0.214,0.238,0.175,0.15
CC(C)(CO)c1cc2cc(NC(=O)C3(c4ccc5c(c4)OC(F)(F)O5)CC3)c(F)cc2n1C[C@@H](O)CO,0.741,0.998,0.693,0.859
CC[C@@H]1C(=O)OC[C@@H]1Cc1cncn1C [Pilocarpine HCl],0.825,1.13,0.74,1.1
CN1CCc2c(c3ccccc3n2Cc2ccc(C(=O)NO)cc2)C1 [Tubastatin A HCl],0.879,1.14,0.641,0.78
CN1CCc2c(c3ccccc3n2Cc2ccc(C(=O)NO)cc2)C1 [Tubastatin A],0.784,0.956,0.901,0.697
CS(=O)(=O)OCCCCOS(C)(=O)=O [Busulfan],1.02,0.987,0.811,0.911

Structure (SMILES),fractional viability [1],fractional viability [2],fractional viability [3],fractional viability [4]
N#Cc1ccc(-c2csc(NN=C3CCCC3)n2)cc1 [Remodelin],0.788,0.981,0.72,0.576
O=C(/C=C/c1ccc(O)cc1)c1ccc(O)cc1O [Isoliquiritigenin],0.961,1.12,0.899,0.882
OCc1c[nH]c2ccccc12 [Indole-3-carbinol],1.09,1.08,1.09,1.08
N#CCNC(=O)c1ccc(-c2ccnc(Nc3ccc(N4CCOCC4)cc3)n2)cc1,0.802,1,0.183,0.236
Cc1ncc(-c2ccnc(Nc3ccc(S(C)(=O)=O)cc3)n2)n1C(C)C,0.158,0.182,0.193,0.154
Cc1ccc(=O)n(-c2ccccc2)c1 [Pirfenidone],1.06,1.17,0.866,1.09
CN(C)C(=O)[C@H](O)[C@H](Cc1ccccc1)NC(=O)c1cc2cc(Cl)ccc2[nH]1,1.02,1.12,0.704,1.07
O=C(Oc1cc(S(=O)(=O)c2ccccc2)ccc1[N+](=O)[O-])c1ccc(Cl)cc1,0.81,0.965,0.882,0.765
COc1ccc(C2CC(=O)c3c(O)cc(OC4OC(COC5OC(C)C(O)C(O)C5O)C(O)C(O)C4O)cc3O2)cc1OC (configuration not stated) [Methyl-Hesperidin],0.968,1.08,0.924,1.04
Cc1cc(CN2CCN(c3c(Br)cnc4nc(-c5ccc(N6CCN(C)CC6)cc5)[nH]c34)CC2)no1,0.257,0.787,0.0626,0.0746
CCN1CCN(Cc2ccc(C(=O)Nc3ccc(C)c(Oc4ccc5c(c4)CC(=O)N5)c3)cc2C(F)(F)F)CC1,0.704,0.758,0.477,0.756
N[C@@H](Cc1cc(I)c(Oc2ccc(O)c(I)c2)c(I)c1)C(=O)O [Liothyronine Sodium],0.807,1.03,0.826,0.949
COCCCN1CCC(NC(=O)c2cc(Cl)c(N)c3c2OCC3)CC1 [Prucalopride],1,1.25,0.842,1.13
COCCCN1CCC(NC(=O)c2cc(Cl)c(N)c3c2OCC3)CC1 [Prucalopride Succinat],1.04,1.18,0.858,1.07
C=CC(=O)N1C/C(=C\c2ccc([N+](=O)[O-])cc2)C(=O)/C(=C/c2ccc([N+](=O)[O-])cc2)C1,0.0518,0.0506,0.032,0.0122
CNc1nc(Nc2cn(C(C)(C)C#N)nc2C)ncc1C(F)(F)F,0.751,0.923,0.758,0.766
COC(=O)C1=C(C#N)NC(C)=C(C(=O)OC(C)C)C1c1cccc([N+](=O)[O-])c1 (configuration not stated) [Nilvadipine],1.13,1.08,0.854,0.905
C[C@H](CCC(=O)O)[C@H]1CC[C@H]2[C@@H]3[C@@H](O)C[C@@H]4C[C@H](O)CC[C@]4(C)[C@H]3CC[C@]12C [Ursodiol],0.966,1.09,0.944,0.992
